Source: PubChem BioAssay AID504832 (National Center for Advancing Translational Sciences (NCATS), 2011)
Hit rate of the full screen: of about 310,000 compounds, about 18,000 (5.8%) were called active. This list was built around the results that the source calls inconclusive (neither active nor inactive); the mix of calls is not that of the screen. Calls come from the whole dose curve; as a rule, active = well fitted inhibition curve with a large enough effect; inconclusive = small, poorly fitted or top-dose-only effect, or another doubt; inactive = no such curve, though single readings can be large or run the other way. No potency is given beside an inconclusive call; the fits are too rough.

test: Primary qHTS for delayed death inhibitors of the malarial parasite plastid, 48 hour incubation; conditions: P. falciparum luciferase growth in erythrocytes; series mostly up to 28.7 µM; activity change, negative = inhibition: at the top concentration
Procedure, shortened: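 First compound was added to culture medium, then infected red cells at 0.1% parasitemia and 2% hematocrit (final). After incubation at 37 C under 5% CO2, luciferase detection reagent was dispensed and light output recorded.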
% is set by controls: 0 for no effect and ±100 for the full control effect; potency is the fitted concentration of half-maximal effect; tags give direction and shape of the fitted curve.

SMILES	Potency	activity change, negative = inhibition
CC1=C(C#N)c2nc(N)c(C#N)c(C)c2/C1=C\c1ccc(C)cc1	inconclusive [inhibitor, partial curve, poor fit]	–
CCOc1ccc2nc(SCC(=O)NCc3ccco3)sc2c1	active: 8.28 µM	–
COc1ccc(NC(=O)c2cc([N+](=O)[O-])ccc2N2CCCCC2)cc1	inconclusive [inhibitor, partial curve, poor fit]	–
CCOc1c(O)ccc(/C=C2\SC(=S)NC2=O)c1[N+](=O)[O-]	–	inactive: 4.03%
O=C(CSc1ccc2nnc(-c3ccccn3)n2n1)NCc1ccco1	–	inactive: -11.9%
COc1ccc(/C=N/OCC(=O)N(Cc2ccc(OC)cc2)c2ccccc2C(=O)O)cc1	–	inactive: 3.26%
O=Cc1ccc(OCC(=O)N2CCc3ccccc32)c(Br)c1	–	inactive: -23.1%
CC1CCc2[nH]c3ccc(C(=O)NCCCOC(C)C)cc3c2C1 (configuration not stated)	–	inactive: 12.4%
Nc1nc(F)nc2c1ncn2[C@@H]1O[C@H](CO)[C@@H](O)[C@H]1O	–	inactive: -12.5%
CCC1(C)Nc2ccccc2C(=O)N1O (configuration not stated)	inconclusive [inhibitor, single point]	–
Cc1c(CN2CCC(CO)(CCOc3ccccc3)CC2)[nH]c2ccc(Cl)cc12	active: 3.7 µM	–
CCc1ccc(C(O)(CC(C)C)C(CN2CCOCC2)c2ccccc2)cc1 (configuration not stated)	inconclusive [inhibitor, full curve]	–
O=C(NP(=O)(N1CCOCC1)N1CCOCC1)C1=C(N2CCOCC2)/C(=C\c2ccccc2)CC1	–	inactive: 5.18%
Cn1cnc2cc(NC(=O)c3cccs3)ccc21	–	inactive: 138%
CC(C)(C)[Si](OCC[C@@H]1C[C@@]1(C)[C@@H](NP(=O)(c1ccccc1)c1ccccc1)c1ccccc1)(c1ccccc1)c1ccccc1	inconclusive [inhibitor, partial curve]	–
CCOP(=S)(OCC)Oc1ccc2c(C)c(Cl)c(=O)oc2c1	inconclusive [inhibitor, single point]	–
Cc1nc(N=C(N)N)nc2c(C)cccc12	inconclusive [inhibitor, partial curve, poor fit]	–
O=C(c1cc2n(n1)C(C(F)(F)F)CC(c1ccco1)N2)N1CCc2ccccc2C1 (configuration not stated)	inconclusive [inhibitor, single point]	–
CCOC(CCn1c(SCc2cccc([N+](=O)[O-])c2)nc2ccccc2c1=O)OCC	inconclusive [inhibitor, single point]	–
CCN(CC)S(=O)(=O)c1cc(C(=O)Nc2ccncc2)ccc1Cl	inconclusive [inhibitor, single point]	–
COc1ccccc1/C=C/C=N/NC(=O)CN1CCN(Cc2ccccc2)CC1	inconclusive [inhibitor, single point]	–
COc1ccc(OC)c(NC(=O)C(C)Oc2ccc(Br)cc2)c1 (configuration not stated)	inconclusive [inhibitor, single point]	–
CC(Sc1nnc(Cc2cccs2)n1C)C(=O)Nc1ccc(C(N)=O)cc1 (configuration not stated)	inconclusive [inhibitor, partial curve, poor fit]	–

SMILES	Potency	activity change, negative = inhibition
CS(=O)(=O)N1CCc2cc(C(=O)N3CCN(c4ccccc4F)CC3)ccc21	–	inactive: 20.1%
O=C(CSc1nc(O)cc(=O)n1-c1ccccc1)Nc1ccccn1	–	inactive: 5.18%
CN(C)CCN(C(=O)CN1C(=O)c2ccccc2C1=O)c1nc2cc3c(cc2s1)OCO3	inconclusive [inhibitor, partial curve, poor fit]	–
O=C(NCc1cccs1)c1cccnc1SCCS(=O)(=O)c1ccc(C(F)(F)F)cn1	inconclusive [inhibitor, partial curve, poor fit]	–
CCOc1ccc(Nc2oc(Cc3ccccc3)nc2C#N)cc1	inconclusive [inhibitor, single point]	–
CCC(C)(C)C1CCc2[nH]nc(C(=O)NC3CCCC3)c2C1 (configuration not stated)	inconclusive [inhibitor, partial curve, poor fit]	–
CCCCN(CC)S(=O)(=O)c1ccc(C(=O)N(CCCN(C)C)c2nc3cc(C)cc(C)c3s2)cc1	inconclusive [inhibitor, full curve, poor fit]	–
Cc1nc2cc(NCc3ccccc3O)ccc2n1Cc1ccccc1	inconclusive [inhibitor, partial curve, poor fit]	–
O=[N+]([O-])c1ccc(N2CCN(S(=O)(=O)c3ccc(Cl)c(Cl)c3)CC2)cc1NCCN1CCOCC1	inconclusive [inhibitor, single point]	–
COc1cc(C(=O)N2CCN(C/C=C/c3ccccc3)CC2)cc(OC)c1C	active: 10.4 µM	–
O=C(CCN1C(=O)/C(=C/c2cccs2)SC1=S)Nc1ccccn1	inconclusive [inhibitor, partial curve]	–
Cc1ccc(Cl)c(OCC(=O)NCc2ccco2)c1	–	inactive: 21.4%
C=CCN1C(=O)c2ccc(C(=O)N3CCN(c4ccccc4OC)CC3)cc2C1=O	inconclusive [inhibitor, single point]	–
Cc1cc2oc(=O)cc(CN3CCN(S(=O)(=O)c4ccc5c(c4)OCCO5)CC3)c2cc1C	inconclusive [inhibitor, single point]	–
COc1ccccc1CCC(=O)Nc1ccc2c(c1)CN(Cc1ccc(CO)o1)CC2	active: 13.1 µM	–
Cc1nn(C)cc1S(=O)(=O)Nc1cccc(Cl)c1	–	inactive: 44.2%
CC(C)(C)OC(=O)NCCc1nnc(SCc2ccc(Cl)cc2Cl)o1	inconclusive [inhibitor, single point]	–
Cc1cc(C)c(C(=O)NC2CC(C)(C)Cc3c2cnn3-c2ccccc2)o1 (configuration not stated)	inconclusive [inhibitor, single point]	–
CCN(c1ccccc1)S(=O)(=O)c1cc(NC(=O)Nc2ccccc2C#N)ccc1Cl	inconclusive [inhibitor, single point]	–
CCc1ccc(N2C(=O)CC(N3CCN(c4ccccn4)CC3)C2=O)cc1 (configuration not stated)	–	inactive: 1.67%
CCOP(=O)(OCC)c1nc(Cc2ccccc2)oc1NCc1ccccc1	active: 9.28 µM	–
O=C1C=C(c2cccc3c2Oc2ccccc2S3)C[C@@H](c2ccc(Cl)cc2)C1	inconclusive [inhibitor, partial curve, poor fit]	–
C/C(=N\NC(=O)C(O)(c1ccccc1)c1ccccc1)c1ccc(C)o1	–	inactive: -20.1%

SMILES	Potency	activity change, negative = inhibition
CC(Sc1nnc(C2CC2)n1C1CC1)C(=O)Nc1cccc(S(=O)(=O)N(C)C)c1 (configuration not stated)	inconclusive [inhibitor, single point]	–
CCCCc1c(O)nc2ccccn2c1=O	inconclusive [inhibitor, single point]	–
COc1cccc2sc(N(CCCN(C)C)C(=O)c3sc4ccccc4c3Cl)nc12	–	inactive: 6.56%
O=C(OCC(=O)N1CCN(C(=O)c2ccco2)CC1)c1ccccc1C(=O)c1ccc(Cl)cc1	inconclusive [inhibitor, partial curve, poor fit]	–
CC(OC(=O)C1CCCC1)C(=O)Nc1ncc(Cl)cc1Cl (configuration not stated)	inconclusive [inhibitor, single point]	–
COc1ccccc1/C=C/C=C1\Oc2c(ccc(O)c2CN(C)C)C1=O	active: 2.62 µM	–
CC(=O)OCC(=O)[C@@]1(O)CC[C@H]2[C@@H]3C[C@H](C)C4=CC(=O)C=C[C@]4(C)[C@H]3[C@@H](O)C[C@@]21C	–	inactive: -0.32%
O=C(COc1ccc(Br)cc1CNC1CCCCC1)NCCc1ccccc1	inconclusive [inhibitor, partial curve, poor fit]	–
Cc1nc(=S)c2c([nH]1)-c1ccccc1CC21CCCCC1	inconclusive [inhibitor, partial curve, poor fit]	–
CCn1c(CSc2nc(C)cc(C)n2)nnc1SCC(=O)N1CCCc2ccccc21	inconclusive [inhibitor, partial curve]	–
Cc1ccc(C(C[N+](=O)[O-])c2c(C)cc3ccccn23)cc1 (configuration not stated)	inconclusive [inhibitor, partial curve, poor fit]	–
O=c1/c(=C\c2ccc(O)cc2)sc2n1C(c1ccccc1)C(c1ccccc1)=NN=2 (configuration not stated)	inconclusive [inhibitor, partial curve, poor fit]	–
O=C(COc1ccc([N+](=O)[O-])cc1)Nc1ccc(S(=O)(=O)N2CCOCC2)cc1	inconclusive [inhibitor, partial curve, poor fit]	–
COc1ccc(-c2nsc3c(SCc4ccccc4)ncnc23)cc1	–	inactive: 19.2%
CCn1c(CNC(=O)COC)nc2ccccc21	–	inactive: 9.21%
COc1cc(O)c(C(CC(=O)N2CCN(c3ccccc3)CC2)c2ccc(N(C)C)cc2)c(OC)c1 (configuration not stated)	inconclusive [inhibitor, single point]	–
COc1cc(CN(C)CC(=O)c2[nH]c(C)c(C(C)=O)c2C)ccc1OC(F)F	inconclusive [inhibitor, single point]	–
COCCN1CCC(CNCc2c(C(=O)N3CCCCC3)nc3c(C)cccn23)C1 (configuration not stated)	inconclusive [inhibitor, partial curve, poor fit]	–
Cc1ccc(CNC(=O)CSc2nnc3c(n2)[nH]c2ccccc23)cc1	–	inactive: 18.2%
Cc1ccccc1CN1[C@@H](CC2CCCCC2)COCCS1(=O)=O	inconclusive [inhibitor, single point]	–
CCCc1cc(=O)[nH]c(SCC(=O)c2ccc3c(c2)NC(=O)CO3)n1	–	inactive: 33.9%
